These are yes or no findings as the source states them, for the method shown. In cells and extracts the contact can be indirect. Some binding calls cover weakened binding; strength is not graded here. Where a sequence is shown, tags or fusion partners need not be part of it.
Assays:
[1] = molecular target: T1, Myc-Nde1 (mouse) (UniProt Q9CZA6); experiment: co-IP; Myc-Nde1 transfected in 293T, immunoprecipitated by anti-myc 9E10 (mouse IgG as control), endogenous partners by immunoblotting; 25 mM HEPES, 150 mM NaCl, 10 mM NaF, 100 uM Na3VO4, 0.5% NP40, 10% glycerol, protease inhibitors, 1 mM ATP
T1 sequence: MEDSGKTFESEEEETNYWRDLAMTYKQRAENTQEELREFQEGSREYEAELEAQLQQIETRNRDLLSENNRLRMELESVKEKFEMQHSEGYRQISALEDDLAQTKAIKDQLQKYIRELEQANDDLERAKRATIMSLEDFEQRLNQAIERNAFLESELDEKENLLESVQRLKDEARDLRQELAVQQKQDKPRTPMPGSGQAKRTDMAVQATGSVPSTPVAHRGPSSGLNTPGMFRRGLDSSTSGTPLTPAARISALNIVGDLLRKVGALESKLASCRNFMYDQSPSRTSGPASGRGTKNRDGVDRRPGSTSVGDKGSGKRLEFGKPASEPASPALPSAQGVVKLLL

By UniProt entry, the sequences of proteins in these tests, tags left out.
UniProt O60264: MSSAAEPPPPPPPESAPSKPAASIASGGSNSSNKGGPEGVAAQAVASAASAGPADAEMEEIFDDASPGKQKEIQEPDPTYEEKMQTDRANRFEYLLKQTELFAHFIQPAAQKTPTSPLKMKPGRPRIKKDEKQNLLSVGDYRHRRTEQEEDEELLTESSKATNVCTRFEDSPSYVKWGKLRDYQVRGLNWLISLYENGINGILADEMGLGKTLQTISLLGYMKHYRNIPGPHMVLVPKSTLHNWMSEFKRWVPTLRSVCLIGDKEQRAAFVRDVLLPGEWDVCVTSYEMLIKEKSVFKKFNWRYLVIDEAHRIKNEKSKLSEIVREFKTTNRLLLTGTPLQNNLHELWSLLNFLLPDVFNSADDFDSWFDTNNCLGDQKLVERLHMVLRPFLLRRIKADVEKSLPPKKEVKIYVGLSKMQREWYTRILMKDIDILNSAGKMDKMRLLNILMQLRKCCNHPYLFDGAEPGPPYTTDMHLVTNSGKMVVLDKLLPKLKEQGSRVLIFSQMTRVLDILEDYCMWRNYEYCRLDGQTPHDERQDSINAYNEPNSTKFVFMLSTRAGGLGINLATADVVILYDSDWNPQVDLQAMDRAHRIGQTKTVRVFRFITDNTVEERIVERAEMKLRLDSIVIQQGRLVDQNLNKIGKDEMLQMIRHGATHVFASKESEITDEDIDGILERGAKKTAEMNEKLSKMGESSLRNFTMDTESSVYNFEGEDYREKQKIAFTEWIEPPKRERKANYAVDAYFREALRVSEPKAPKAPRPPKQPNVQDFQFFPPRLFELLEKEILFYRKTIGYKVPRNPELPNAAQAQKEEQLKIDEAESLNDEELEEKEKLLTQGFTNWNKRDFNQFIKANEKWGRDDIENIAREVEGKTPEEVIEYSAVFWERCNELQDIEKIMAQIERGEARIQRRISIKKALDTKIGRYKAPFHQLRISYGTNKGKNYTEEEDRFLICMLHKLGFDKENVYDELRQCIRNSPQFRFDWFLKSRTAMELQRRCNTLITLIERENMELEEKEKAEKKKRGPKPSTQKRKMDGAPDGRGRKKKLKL

[2] = molecular target: T2, Flag-NBD of SMC3 (Nde1 binding domain of Smc3) (UniProt Q9CW03); experiment: co-IP; Flag-NBD of SMC3 co-transfected with GFP-Nde1 in 293T, immunoprecipitated by the Flag antibody (mouse IgG as control), immunoblotting; 25 mM HEPES, 150 mM NaCl, 10 mM NaF, 100 uM Na3VO4, 0.5% NP40, 10% glycerol, protease inhibitors, 1 mM ATP
T2 sequence: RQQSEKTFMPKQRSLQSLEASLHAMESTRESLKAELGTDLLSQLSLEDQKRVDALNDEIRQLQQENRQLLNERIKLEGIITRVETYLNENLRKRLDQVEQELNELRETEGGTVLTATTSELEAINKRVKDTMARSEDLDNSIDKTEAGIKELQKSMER

| binding [1] | binding [2] | Substance |
| --- | --- | --- |
| binds | no binding | structural maintenance of chromosomes 3 (SMC3), endogenous (from UniProt Q9UQE7 1-1217) |
| binds | – | SNF2h, endogenous (from UniProt O60264 1-1052) |
